# Measurements taken from the supplement of paper PMC8728848.
# This is one part of the list.
# B1: mCC1-Hexahis-Precomplexed (Mus musculus), P31809 (protein)
# chain: MELASAHLHKGQVPWGGLLLTASLLASWSPATTAEVTIEAVPPQVAEDNNVLLLVHNLPLALGAFAWYKGNTTAIDKEIARFVPNSNMNFTGQAYSGREIIYSNGSLLFQMITMKDMGVYTLDMTDENYRRTQATVRFHVHPILLKPNITSNNSNPVEGDDSVSLTCDSYTDPDNINYLWSRNGESLSEGDRLKLSEGNRTLTLLNVTRNDTGPYVCETRNPVSVNRSDPFSLNIIYGPDTPIISPSDIYLHPGSNLNLSCHAASNPPAQYFWLINEKPHASSQELFIPNITTNNSGTYTCFVNNSVTGLSRTTVKNITVLEPVTQPFLQVTNTTVKELDSVTLTCLSNDIGANIQWLFNSQSLQLTERMTLSQNNSILRIDPIKREDAGEYQCEISNPVSVRRSNSIKLDIIFDPTQGGLSDGHHHHHH
# Experiments:
# Assay in all cases: glycan array binding signal (z-score within array); higher = stronger binding
# Details in all cases: glycan notation: IUPAC condensed, linker removed
# [1] = target: GlcNAc(b1-4)GlcNAc(b1-4)GlcNAc(b1-4)GlcNAc(b1-4)GlcNAc(b1-4)GlcNAc
# How it was run: (§1)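 The Consortium for Functional Glycomics database supplied 3228 glycan arrays, of which those lacking an available protein sequence were dropped. The binding signal, a within-array Z-score, was averaged across arrays of the same protein sequence and across linkers. Negative scores can be read as non-binding.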
# [2] = target: GlcNAc(b1-4)[GlcNAc(b1-6)]GalNAc
# How it was run: as §1
# [3] = target: GlcNAc(b1-6)Gal(b1-4)GlcNAc
# How it was run: as §1
# GlcNAc(b1-6)GalNAc = target: GlcNAc(b1-6)GalNAc
# How it was run: as §1
# [4] = target: GlcNAc6S(b1-3)Gal(b1-4)GlcNAc
# How it was run: as §1
# Kdn(a2-3)Gal(b1-3)GalNAc = target: Kdn(a2-3)Gal(b1-3)GalNAc
# How it was run: as §1
# Kdn(a2-3)Gal(b1-3)GlcNAc = target: Kdn(a2-3)Gal(b1-3)GlcNAc
# How it was run: as §1
# Kdn(a2-3)Gal(b1-4)Glc = target: Kdn(a2-3)Gal(b1-4)Glc
# How it was run: as §1
# Kdn(a2-3)Gal(b1-4)GlcNAc = target: Kdn(a2-3)Gal(b1-4)GlcNAc
# How it was run: as §1
# [5] = target: Kdn(a2-3)Gal(b1-4)[Fuc(a1-3)]GlcNAc
# How it was run: as §1
# Kdn(a2-6)Gal(b1-4)GlcNAc = target: Kdn(a2-6)Gal(b1-4)GlcNAc
# How it was run: as §1
# [6] = target: Man(a1-2)Man(a1-2)Man(a1-3)Man
# How it was run: as §1
# [7] = target: Man(a1-2)Man(a1-2)Man(a1-6)[Man(a1-3)]Man
# How it was run: as §1
# Man(a1-2)Man(a1-3)Man = target: Man(a1-2)Man(a1-3)Man
# How it was run: as §1
# [8] = target: Man(a1-2)Man(a1-3)[Man(a1-2)Man(a1-6)]Man
# How it was run: as §1
# [9] = target: Man(a1-2)Man(a1-3)[Man(a1-2)Man(a1-6)]Man(a1-6)[Man(a1-2)Man(a1-2)Man(a1-3)]Man
# How it was run: as §1
# [10] = target: Man(a1-2)Man(a1-3)[Man(a1-2)Man(a1-6)]Man(a1-6)[Man(a1-2)Man(a1-2)Man(a1-3)]Man(b1-4)GlcNAc(b1-4)GlcNAc
# How it was run: as §1
# [11] = target: Man(a1-2)Man(a1-3)[Man(a1-6)]Man(a1-6)[Man(a1-2)Man(a1-3)]Man(b1-4)GlcNAc(b1-4)GlcNAc
# How it was run: as §1
# [12] = target: Man(a1-2)Man(a1-6)[Man(a1-3)]Man(a1-6)[Man(a1-2)Man(a1-2)Man(a1-3)]Man
# How it was run: as §1
# [13] = target: Man(a1-2)Man(a1-6)[Man(a1-3)]Man(a1-6)[Man(a1-2)Man(a1-2)Man(a1-3)]Man(b1-4)GlcNAc(b1-4)GlcNAc
# How it was run: as §1
# Man(a1-3)[Man(a1-6)]Man = target: Man(a1-3)[Man(a1-6)]Man
# How it was run: as §1
# [14] = target: Man(a1-3)[Man(a1-6)]Man(a1-6)[Man(a1-2)Man(a1-3)]Man(b1-4)GlcNAc(b1-4)GlcNAc
# How it was run: as §1
# [15] = target: Man(a1-3)[Man(a1-6)]Man(a1-6)[Man(a1-3)]Man
# How it was run: as §1
# [16] = target: Man(a1-3)[Man(a1-6)]Man(a1-6)[Man(a1-3)]Man(b1-4)GlcNAc(b1-4)GlcNAc
# How it was run: as §1
# [17] = target: Man(a1-3)[Man(a1-6)]Man(b1-4)GlcNAc(b1-4)GlcNAc
# How it was run: as §1
# [18] = target: Man(a1-3)[Man(a1-6)]Man(b1-4)GlcNAc(b1-4)[Fuc(a1-6)]GlcNAc
# How it was run: as §1
# Man(a1-6)Man = target: Man(a1-6)Man
# How it was run: as §1
# Man(b1-4)GlcNAc = target: Man(b1-4)GlcNAc
# How it was run: as §1
# MurNAc(b1-4)GlcNAc = target: MurNAc(b1-4)GlcNAc
# How it was run: as §1
# Neu5Ac(a2-3)Gal = target: Neu5Ac(a2-3)Gal
# How it was run: as §1
# [19] = target: Neu5Ac(a2-3)Gal(b1-3)GalNAc
# How it was run: as §1
# [20] = target: Neu5Ac(a2-3)Gal(b1-3)GalNAc(b1-3)Gal(a1-4)Gal(b1-4)Glc
# How it was run: as §1
# [21] = target: Neu5Ac(a2-3)Gal(b1-3)GalNAc(b1-4)[Neu5Ac(a2-3)]Gal(b1-4)Glc
# How it was run: as §1
# [22] = target: Neu5Ac(a2-3)Gal(b1-3)GalNAc(b1-4)[Neu5Ac(a2-8)Neu5Ac(a2-3)]Gal(b1-4)Glc
# How it was run: as §1
# [23] = target: Neu5Ac(a2-3)Gal(b1-3)GalNAc6S
# How it was run: as §1
# [24] = target: Neu5Ac(a2-3)Gal(b1-3)GlcNAc
# How it was run: as §1
# [25] = target: Neu5Ac(a2-3)Gal(b1-3)GlcNAc(b1-2)Man
# How it was run: as §1
# [26] = target: Neu5Ac(a2-3)Gal(b1-3)GlcNAc(b1-2)Man(a1-3)[GlcNAc(b1-4)][Neu5Ac(a2-3)Gal(b1-3)GlcNAc(b1-2)Man(a1-6)]Man(b1-4)GlcNAc(b1-4)GlcNAc
# How it was run: as §1
# [27] = target: Neu5Ac(a2-3)Gal(b1-3)GlcNAc(b1-2)Man(a1-3)[Neu5Ac(a2-3)Gal(b1-3)GlcNAc(b1-2)Man(a1-6)]Man(b1-4)GlcNAc(b1-4)GlcNAc
# How it was run: as §1
# [28] = target: Neu5Ac(a2-3)Gal(b1-3)GlcNAc(b1-3)Gal(b1-3)GlcNAc
# How it was run: as §1
# [29] = target: Neu5Ac(a2-3)Gal(b1-3)GlcNAc(b1-3)Gal(b1-4)GlcNAc
# How it was run: as §1
# [30] = target: Neu5Ac(a2-3)Gal(b1-3)GlcNAc(b1-3)GalNAc
# How it was run: as §1
# [31] = target: Neu5Ac(a2-3)Gal(b1-3)GlcNAc(b1-4)Gal(b1-4)Glc
# How it was run: as §1
# [32] = target: Neu5Ac(a2-3)Gal(b1-3)GlcNAc(b1-6)GalNAc
# How it was run: as §1
# [33] = target: Neu5Ac(a2-3)Gal(b1-3)GlcNAc6S
# How it was run: as §1
binder,measurement,setting,value
B1,glycan array binding signal (z-score),[1],-0.151
same,glycan array binding signal (z-score),[2],-0.246
same,glycan array binding signal (z-score),[3],-0.259
same,glycan array binding signal (z-score),GlcNAc(b1-6)GalNAc,-0.156
same,glycan array binding signal (z-score),[4],-0.239
same,glycan array binding signal (z-score),Kdn(a2-3)Gal(b1-3)GalNAc,-0.099
same,glycan array binding signal (z-score),Kdn(a2-3)Gal(b1-3)GlcNAc,-0.208
same,glycan array binding signal (z-score),Kdn(a2-3)Gal(b1-4)Glc,-0.18
same,glycan array binding signal (z-score),Kdn(a2-3)Gal(b1-4)GlcNAc,-0.232
same,glycan array binding signal (z-score),[5],-0.169
same,glycan array binding signal (z-score),Kdn(a2-6)Gal(b1-4)GlcNAc,-0.171
same,glycan array binding signal (z-score),[6],-0.262
same,glycan array binding signal (z-score),[7],-0.053
same,glycan array binding signal (z-score),Man(a1-2)Man(a1-3)Man,-0.152
same,glycan array binding signal (z-score),[8],-0.193
same,glycan array binding signal (z-score),[9],-0.115
same,glycan array binding signal (z-score),[10],1.13
same,glycan array binding signal (z-score),[11],-0.127
same,glycan array binding signal (z-score),[12],-0.146
same,glycan array binding signal (z-score),[13],-0.31
same,glycan array binding signal (z-score),Man(a1-3)[Man(a1-6)]Man,-0.219
same,glycan array binding signal (z-score),[14],4.18
same,glycan array binding signal (z-score),[15],-0.025
same,glycan array binding signal (z-score),[16],-0.197
same,glycan array binding signal (z-score),[17],0.283
same,glycan array binding signal (z-score),[18],0.151
same,glycan array binding signal (z-score),Man(a1-6)Man,-0.125
same,glycan array binding signal (z-score),Man(b1-4)GlcNAc,-0.218
same,glycan array binding signal (z-score),MurNAc(b1-4)GlcNAc,-0.257
same,glycan array binding signal (z-score),Neu5Ac(a2-3)Gal,-0.243
same,glycan array binding signal (z-score),[19],-0.136
same,glycan array binding signal (z-score),[20],0.113
same,glycan array binding signal (z-score),[21],-0.082
same,glycan array binding signal (z-score),[22],-0.182
same,glycan array binding signal (z-score),[23],-0.203
same,glycan array binding signal (z-score),[24],-0.041
same,glycan array binding signal (z-score),[25],-0.218
same,glycan array binding signal (z-score),[26],-0.017
same,glycan array binding signal (z-score),[27],0.199
same,glycan array binding signal (z-score),[28],-0.117
same,glycan array binding signal (z-score),[29],-0.162
same,glycan array binding signal (z-score),[30],0.321
same,glycan array binding signal (z-score),[31],-0.198
same,glycan array binding signal (z-score),[32],-0.291
same,glycan array binding signal (z-score),[33],1.47
